Experimental data taken from PubChem BioAssay AID686978 (National Center for Advancing Translational Sciences (NCATS), 2013).
The whole screen tested about 420,000 compounds, of which about 64,000 (15%) were called active. Inconclusive means that the source gave no clear call. Such entries were picked first, then a sample of the others. Calls come from the whole dose curve; as a rule, active = well fitted inhibition curve with a large enough effect; inconclusive = small, poorly fitted or top-dose-only effect; inactive = flat fitted curve, though single readings scatter. No potency is given beside an inconclusive call; the fits are too rough.

Experiment: qHTS for Inhibitors of human tyrosyl-DNA phosphodiesterase 1 (TDP1): qHTS in cells in absence of CPT; note: nearly all actives have a fitted effect of over 55% in size
Conditions: DT40 Tdp1-/- hTDP1 cells, no CPT, ATP luminescence, 48 h; activity change, negative = growth inhibition: at 46.2 µM (top of the series)
Procedure, shortened: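 Stably hTDP1-transfected Tdp1-null chicken DT40 cells were treated with library compounds minus camptothecin and grown for at least 48 hr at 37 °C, after which cellular ATP was quantified by luminescence.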
% is set by controls: 0 for no effect and ±100 for the full control effect; potency is the fitted concentration of half-maximal effect; tags give direction and shape of the fitted curve.

Compound | Potency | activity change, negative = growth inhibition
CCOC(=O)c1c(C)[nH]c(C)c1C(=O)CN1C(=O)NC2(CCCCCC2)C1=O | inconclusive [inhibitor, single point] | 
O=C1CC(N2CCOCC2)C(=O)N1c1cccc(Cl)c1 (centres undefined) |  | inactive: -7.78%
Cc1ccc(Cn2nnc3c(=O)[nH]c(C4CCN(C(=O)c5cccs5)CC4)nc32)cc1 | inconclusive [inhibitor, single point] | 
Cc1ccc2c(CN(C)Cc3cccc(F)c3)cc(=O)oc2c1C | inconclusive [inhibitor, partial curve] | 
O=C(OCc1nc2ccsc2c(=O)[nH]1)c1ccco1 |  | inactive: -0.855%
CC(C)c1ccc(C(O)Cc2nc3ccccc3n2C)cc1 (centres undefined) | inconclusive [inhibitor, partial curve] | 
COc1ccc(-n2ncc(S(=O)(=O)c3ccccc3)c2-c2ccc(Cl)cc2)cc1 | active: 20.6 µM | 
COc1cccc(CN(C)C(=O)c2cccc(OC3CCN(C4CCCC4)CC3)c2)c1 | inconclusive [inhibitor, single point] | 
c1ccc(CSc2nnc(-c3ccccn3)n2-c2ccccc2)cc1 | inconclusive [inhibitor, single point] | 
Cc1ccc2c(c1)N(S(=O)(=O)c1ccc(CN3C(=O)c4cccnc4C3=O)cc1)CCO2 |  | inactive: 30.2%
Cc1ccc(-n2c(=S)[nH]c3c(oc4ccccc43)c2=O)cc1 |  | inactive: -23.1%
C=CCn1c(CNc2ccc(C)cc2)nnc1SCC(=O)N/N=C/c1ccc(O)cc1O | inconclusive [inhibitor, single point] | 
COC(=O)c1ccc(NC(=O)COc2ccc(N(C)S(=O)(=O)c3ccc(C)cc3)cc2)cc1 | inconclusive [inhibitor, partial curve] | 
O=C(Nc1ccc2oc(=O)ccc2c1)c1cc2ccccc2o1 | inconclusive [inhibitor, single point] | 
COc1ccc(S(=O)(=O)N(CC(=O)Nc2ccc(OC)cc2OC)c2ccc(Cl)cc2)cc1 | active: 25.9 µM | 
Nc1nc(-c2ccccc2)c(CCCOc2ccc(NC(=O)CBr)cc2)c(=O)[nH]1 | inconclusive [inhibitor, single point] | 
CC1(Oc2ccc(Cl)cc2)CCN(Cc2ccc(OC(F)(F)F)cc2)C1 (centres undefined) |  | inactive: -10.8%
CC(C)CCCC(C)NC(=O)c1cc(S(=O)(=O)N2CCCCC2)ccc1N1CCOCC1 (centres undefined) | active: 13 µM | 
O=C(CCN1C(=O)/C(=C/c2ccccc2)SC1=S)N1CCCCCC1 | active: 20.6 µM | 
Cn1nnnc1SCC(=O)NCCc1ccc(Cl)cc1 |  | inactive: -28%
COc1ccccc1CCn1c(=O)c(-c2ccc(Cl)cc2)nc2cncnc21 | inconclusive [inhibitor, single point] | 
Cc1ccc(C(C)c2c(C)c([N+](=O)[O-])cc(C)c2[N+](=O)[O-])cn1 (centres undefined) | inconclusive [inhibitor, partial curve] | 
O=c1nc(N/N=C/c2c[nH]c3ccccc23)cn[nH]1 | inconclusive [inhibitor, single point] | 

Compound | Potency | activity change, negative = growth inhibition
O=C(Nc1ccc(Cn2cccn2)cc1)c1ccc(COc2ccccc2Br)cc1 | active: 14.6 µM | 
O=C(CSc1nnc(CNC(=O)C23CC4CC(CC(C4)C2)C3)n1-c1ccc(F)cc1)Nc1ccc(F)cc1 | inconclusive [inhibitor, single point] | 
CN(C)S(=O)(=O)c1ccc(C(=O)NCCN2C(=O)S/C(=C\c3cccnc3)C2=O)cc1 | inconclusive [inhibitor, partial curve] | 
O=C(Nc1ccc(C(=O)N2CCN(c3ccc(Cl)cc3)CC2)cc1)C1=CSCCO1 | inconclusive [inhibitor, single point] | 
Cc1c(CNC2CCC(C)CC2)c(C(=O)O)c(C)n1Cc1ccccc1F (centres undefined) | inconclusive [inhibitor, single point] | 
COc1ccc(CNS(=O)(=O)c2ccc3oc(C(=O)O)c(C)c3c2)cc1 |  | inactive: 2.17%
COc1ccc(N(CC(=O)Nc2ccc(C)cc2C)S(=O)(=O)c2ccccc2[N+](=O)[O-])c(OC)c1 | inconclusive [inhibitor, single point] | 
COc1ccc(-c2nc(SCC(=O)c3ccc(Br)cc3)n[nH]2)cc1 | inconclusive [inhibitor, partial curve] | 
COCCNc1nc(-c2ccc(N(C)C)cc2)nc2ccccc12 | active: 20.6 µM | 
CN1CCN(c2ccc(CNC(=O)C3(C)Cc4c(-c5ccc6c(c5)OCO6)ccnc4O3)cc2)CC1 (centres undefined) | active: 14.6 µM | 
O=C1CC(N2CCN(c3ccccc3)CC2)C(=O)N1Cc1ccc(Cl)cc1 (centres undefined) | inconclusive [inhibitor, single point] | 
Cc1nc2ccccc2cc1C(=O)NCc1ccc(F)cc1 | inconclusive [inhibitor, single point] | 
Cc1cccc(N2CC(c3nc4ccc(C)cc4[nH]3)CC2=O)c1 (centres undefined) | inconclusive [inhibitor, single point] | 
O=C(C1CCN(c2ccc(N3CCOCC3)nn2)CC1)N1CCN(c2ccc(F)cc2)CC1 | inconclusive [inhibitor, partial curve] | 
COc1ccc(/C=C(/C#N)c2nc(-c3cc4ccccc4oc3=O)cs2)cc1 | active: 14.6 µM | 
CCCN(CC(=O)Nc1ccc(F)c(F)c1F)CC(=O)Nc1c(Cl)cccc1Cl | active: 4.11 µM | 
COc1cnc(-c2ccccc2)nc1Oc1cccc(C)c1 | inconclusive [inhibitor, single point] | 
CC(C)Oc1ccc(NC(=O)c2ccncc2)cc1 | inconclusive [inhibitor, partial curve, poor fit] | 
CCCCCCN1C[C@@H](O)[C@H](n2cc(COC(=O)c3ccccc3)nn2)C[C@@H]1c1ccc(Cl)cc1 |  | inconclusive: -31% [inhibitor]
CC(C)(C)n1ncc2c(=O)n(CC(=O)Nc3ccc(Cl)cc3)cnc21 | inconclusive [inhibitor, partial curve, poor fit] | 
OC[C@@H]1CN(Cc2ccc(-c3ccccc3)cc2)C[C@H](n2cnc3c(NC4CC4)ncnc32)O1 | inconclusive [inhibitor, single point] | 
COc1ccc(C(=O)N2CCC(C(=O)NCc3ccccn3)CC2)cc1 |  | inactive: -0.697%
O=C(NC1(C(F)(F)F)N=C(c2ccccc2)N(C2CCCCC2)C1=O)c1ccc(F)cc1 (centres undefined) | inconclusive [inhibitor, partial curve, poor fit] | 

Compound | Potency | activity change, negative = growth inhibition
COc1ccc(C(=O)CSc2nnc(CN3CCCC3)n2-c2ccc(F)cc2)c(OC)c1 | inconclusive [inhibitor, single point] | 
CCOc1ccc(NC(=O)CC2C(=O)N(c3ccc(C)cc3)C(=O)N2C2CCCCC2)cc1 (centres undefined) | inconclusive [inhibitor, single point] | 
O=C(C1CCN(Cc2ccccc2)CC1)N1CCN(C/C=C/c2ccccc2)CC1 | active: 23.1 µM | 
Cc1ccc(C(O)c2ncc(-c3ccccc3F)[nH]2)c(C)c1 (centres undefined) | inconclusive [inhibitor, single point] | 
CC1CN(C(=O)c2cccc(COc3ccc(Br)cc3)c2)CC(C)O1 (centres undefined) | active: 13 µM | 
CCOc1ccc(NC(=S)NCc2ccc3c(c2)OCO3)cc1 | inconclusive [inhibitor, single point] | 
CC(/C=N/NC(=O)c1cc(-c2ccccc2)nc2ccccc12)=C\c1ccco1 | active: 0.731 µM | 
CCOC(=O)N1CCC(N(CCN(C)C)C(=S)Nc2cccc(OC)c2)CC1 |  | inactive: 16.3%
CC(C)C1N(S(=O)(=O)c2ccccc2)CCN1S(=O)(=O)c1ccccc1 | inconclusive [inhibitor, partial curve] | 
O=C1/C(=C\Nc2ccccc2)CCN1c1ncccn1 |  | inactive: -14%
CCCCNC1=CC(=O)C(NCCCC)=CC1=O | active: 16.4 µM | 
CCOc1ccc(N=C2Sc3nc4ccc(C)cc4cc3CN2CCOC)cc1 | inconclusive [inhibitor, single point] | 
CCn1c(CNC(=O)C(C)(C)C)nc2ccccc21 |  | inactive: -19%
O=C(Nc1ccccc1)c1ccccc1CSc1ccccc1 |  | inconclusive: -34.5% [inhibitor]
COc1cccc(CN(CC2CCCO2)S(=O)(=O)c2ccc(S(=O)(=O)N(C)C)cc2)c1 (centres undefined) | inconclusive [inhibitor, partial curve, poor fit] | 
COc1ccccc1C(=O)NNC(=O)C(=O)NCc1ccccc1 | inconclusive [inhibitor, single point] | 
O=C(Nc1cc(S(=O)(=O)N2CCCCCC2)ccc1OCC(F)(F)F)c1cnccn1 | inconclusive [inhibitor, single point] | 
O=C(c1cccs1)N1CCCC(c2nc(-c3ccc(F)cc3)no2)C1 (centres undefined) | active: 16.4 µM | 
CN1CC[C@@]2(CCCN(C(=O)c3cc(C(F)(F)F)cc(C(F)(F)F)c3)C2)C1 |  | inactive: -10.3%
CCCCc1cc(=O)oc2cc(OCC(=O)Nc3ccccn3)ccc12 | inconclusive [inhibitor, single point] | 
COc1ccc(C)cc1NC(=O)Nc1cccc(C)c1 |  | inactive: -5.52%
Cn1ccc2cc(S(=O)(=O)N3CCCC(C(=O)NCc4ccc(F)cc4)C3)ccc21 (centres undefined) | inconclusive [inhibitor, single point] | 
COC(=O)c1ccc(C2C=C(c3ccc(Cl)cc3)Nc3nc4ccccc4n32)cc1 (centres undefined) | active: 8.2 µM | 
